Laboratory results reported in PubChem BioAssay AID493208 (National Center for Advancing Translational Sciences (NCATS), 2011).
In all, about 44,000 compounds went through this assay and about 340 (0.77%) were called active. About 5% were inconclusive and are not listed. The call rests on the fitted dose curve; in most records, active means well fitted inhibition curve with a large enough effect; inconclusive means small, poorly fitted or top-dose-only effect; inactive means flat fitted curve, though single readings scatter. The list shows a part of the results.

test: Acumen qHTS Assay for Inhibitors of the mTORC1 Signaling Pathway in MEF (Tsc2-/-, p53-/-) Cells: Sytravon; settings: phospho-rpS6 immunofluorescence/PI, 24 h; series mostly up to 38.3 µM; activity change, negative = inhibition: at the top concentration;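 further: plate controls were DMSO for no effect and rapamycin for full effect; nearly all actives have a fitted effect of over 50% in size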
In short: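 Read-out: phospho-S6 Alexa-488 intensity over PI intensity per well, scored as % active cells using thresholds from rapamycin (7.5 nM) and DMSO controls. Tsc2-/-, p53-/- MEFs exposed to compound for 24 h; PI cell count recorded as viability.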

Row | SMILES | activity change, negative = inhibition
1 | CCOC(=O)c1c(S(=O)(=O)N2CCCC(C(=O)NCc3cccc(OC)c3)C2)c(C)n(C)c1C (stereo not given) | inactive: -10.8%
2 | COc1ccc(-c2nnc(SCC(=O)NC3CCCC3)nc2-c2ccc(OC)c(OC)c2)cc1OC | inactive: -0.0452%
3 | CCOc1ccc(N2CC(c3nc4ccccc4n3Cc3ccccc3F)CC2=O)cc1 (stereo not given) | inactive: -15.8%
4 | COc1cccc(OC)c1C(=O)Nc1cccc(-c2cn3ccsc3n2)c1 | inactive: -11.8%
5 | O=C(NCc1ccccc1)C1CCN(S(=O)(=O)c2ccc3c(c2)CCCN3C(=O)C2CCC2)CC1 | inactive: -6.76%
6 | CCOc1ccc(NC(=O)c2ccc(F)c(S(=O)(=O)N(CC)Cc3ccccc3)c2)cc1 | inactive: 0.72%
7 | Cc1cccc(NC(=O)C(=O)NCC(c2cccnc2)N2CCc3ccccc3C2)c1C (stereo not given) | inactive: 8.39%
8 | O=C(CCC1N=C2c3ccccc3N=C(SCc3cccc(F)c3)N2C1=O)NCc1cccs1 (stereo not given) | inactive: -1.82%
9 | CCOC(=O)c1scc(-c2ccc(C)cc2)c1S(=O)(=O)N1CCN(c2ccccc2F)CC1 | inactive: 5.46%
10 | Cc1ccc(Cl)cc1N1CCN(C(=O)CCNS(=O)(=O)c2ccc3c(c2)CCN3C(=O)C2CC2)CC1 | inactive: -4.36%
11 | CCCCCSc1ncnc2c1sc1nc(N3CCOCC3)c3c(c12)CCCC3 | inactive: -3.42%
12 | Cc1ccc(NC(=O)NCc2cccn2Cc2ccccc2)c(C)c1 | inactive: 0%
13 | COc1ccc(OC)c(NC(=O)c2cc(S(=O)(=O)NCCc3ccc(Cl)cc3)ccc2F)c1 | inactive: 7.02%
14 | CCC(C)NC(=O)Cn1c(=O)n(-c2ccc(C)c(C)c2)c(=O)c2c3c(sc21)CCCCC3 (stereo not given) | inactive: -5.01%
15 | CCCCc1nn2c(=O)cc(COC(=O)C3CCCCC3)nc2s1 | inactive: -8.06%
16 | Cc1nc2nc(SCC(=O)NC3CCC(C)CC3)nn2c(C)c1Cc1ccccc1 (stereo not given) | inactive: -21.5%
17 | CCOc1ccc(OCC)c(NC(=O)c2ccc(-c3ccccc3)s2)c1 | inactive: -1.19%
18 | CCOc1ccc(CCNC(=O)c2sc3ncccc3c2-n2cccc2)cc1OCC | inactive: 0%
19 | COC(=O)c1ccc(-c2nc3cc(NC(C)=O)ccc3o2)cc1 | inactive: -5.89%
20 | COc1ccc(-n2c(=O)c3ccccc3n(Cc3cccc(C)c3)c2=O)cc1 | inactive: -12%
21 | CCCN(c1ccc(C(C)C)cc1)S(=O)(=O)c1ccc2c(c1)oc(=O)n2CC(=O)OCC | inactive: -14.1%
22 | COc1cccc(Cn2c(CNS(=O)(=O)c3ccc(C(C)(C)C)cc3)nc3cccnc32)c1 | inactive: -3.45%
23 | COc1ccccc1N1CCN(C(=O)c2cc(S(=O)(=O)N3CCC(C)CC3)cn2C)CC1 | inactive: -11.9%
24 | COc1ccc(-c2nc(CNC(=O)Nc3ccccc3)c(C)o2)cc1 | inactive: 7.87%

Row | SMILES | activity change, negative = inhibition
25 | CCOC(=O)Cn1c(=O)n(CC2CCCO2)c2nc(-c3ccc(C(C)C)cc3)nc(C(N)=O)c21 (stereo not given) | inactive: -2.59%
26 | O=C(Nc1nnc(S(=O)(=O)Nc2ccccc2)s1)C1CCCCC1 | inactive: 4.77%
27 | CCCSc1nnc2[nH]c(=O)cc(C)n12 | inactive: -4.11%
28 | COc1cc2c(-c3cc(Br)ccc3O)nc3c(c(C)nn3-c3ccccc3)c2cc1OC | inactive: -4.63%
29 | Cc1ccccc1N(C)S(=O)(=O)c1nnc(NC(=O)C(C)C)s1 | inactive: -1.63%
30 | CCOC(=O)c1ccc(N2C(=O)c3n[nH]c(C)c3C2c2ccc(OCC)cc2)cc1 (stereo not given) | inactive: 0.744%
31 | Cc1ccccc1NC(=O)Cn1c(=O)n(Cc2ccccc2)c(=O)c2sc3ccccc3c21 | inactive: -4.87%
32 | CCOc1ccc(C(=O)NCC(c2ccco2)S(=O)(=O)c2cccs2)cc1 (stereo not given) | inactive: 1.16%
33 | COc1ccc2c(C)c(CCC(=O)NCc3ccc(Cl)cc3)c(=O)oc2c1C | inactive: -11.7%
34 | Cc1nn(-c2ccc(N3CCCC3)nn2)c(C)c1CCC(=O)N1CCN(c2ccccc2)CC1 | inactive: -3.96%
35 | Cc1ccccc1-c1nn2c(=O)cc(CN3CCN(S(=O)(=O)c4ccc(Cl)cc4)CC3)nc2s1 | inactive: -0.989%
36 | COC(=O)c1ccc(C(=O)OC)c(NC(=O)c2cnn3c(C(F)F)cc(-c4ccccc4)nc23)c1 | inactive: -0.744%
37 | COc1ccc(NC(=O)Cn2c(=O)n(-c3cccc(C(F)(F)F)c3)c(=O)c3sccc32)cc1 | inactive: -14.3%
38 | O=C(NCC(c1ccc(Cl)cc1)N1CCCCC1)c1ccccc1F (stereo not given) | inactive: -8.46%
39 | CCOc1ccc(OCC)c(NC(=O)CCc2nc3cccnc3n2-c2ccccc2)c1 | inactive: -9.67%
40 | CCC1CN(C(=O)Nc2ccc(Br)cc2F)c2ccccc2S1 (stereo not given) | inactive: -1.64%
41 | Cc1ccccc1NC(=O)[C@H](CSCc1ccccc1)N1Cc2ccccc2C1=O | inactive: -5.43%
42 | CCc1ccc(S(=O)(=O)Nc2ccc(-c3ccc(N4CCCC4)nn3)cc2)cc1 | inactive: 7.73%
43 | COC(=O)C(NC(=O)CCc1c(C)nc2c(c(C)nn2-c2ccccc2)c1C)C(C)C (stereo not given) | inactive: 0.985%
44 | COc1cc(OC)cc(C(=O)Nc2ccc3nc(Nc4cccc(C(F)(F)F)c4)cc(C)c3c2)c1 | inactive: -16.3%
45 | C#CCn1c(C2CC(=O)N(c3ccc(OCC)cc3)C2)nc2ccccc21 (stereo not given) | inactive: 3.55%
46 | CCN(CC)C(=O)C1CCN(c2nnc(C)c3c(C)n(-c4ccc(Cl)cc4)nc23)CC1 | inactive: -4.54%
47 | O=C(NCc1ccc(F)cc1)c1cnc(N2CCCCC2)c2ccccc12 | inactive: 0.4%
48 | CCCOc1ccc(CNC(=O)C2CCCN(c3nc4c(C)cc(C)cc4s3)C2)cc1 (stereo not given) | inactive: -5.6%

Row | SMILES | activity change, negative = inhibition
49 | Cc1cccc(NC(=O)c2ccc(F)c(S(=O)(=O)N3CCC4(CC3)OCCO4)c2)c1 | inactive: 0.295%
50 | COc1ccc(NC(=O)Cn2c(=O)n(CCCC(=O)NCCc3ccc(C)cc3)c(=O)c3ccccc32)cc1Cl | inactive: -0.0143%
51 | Cc1ccc(CCNC(=O)c2ccc3c(c2)N(Cc2ccccc2)C(=O)c2ccccc2S3=O)cc1 (stereo not given) | inactive: 0.24%
52 | COc1ccc(N2CCN(c3ncnc4onc(-c5ccc(F)cc5)c34)CC2)cc1 | inactive: -10.9%
53 | COc1cc(OC)c(NC(=O)N2CCc3cc(OC)c(OC)cc3C2CC(=O)O)cc1Cl (stereo not given) | inactive: 28.7%
54 | CC(C)c1ccc(C2c3c(-c4ccccc4O)n[nH]c3C(=O)N2Cc2ccncc2)cc1 (stereo not given) | inactive: -10.7%
55 | CCCCOC(=O)CSc1nnc(-c2ccc(C)cc2)o1 | inactive: -10.8%
56 | COc1ccc(C(=O)Nc2nnc(C)s2)cc1 | inactive: -4.72%
57 | Cc1ccc(Cl)cc1NC(c1ccc(F)cc1)c1nnc(-c2ccccc2)o1 (stereo not given) | inactive: -23.8%
58 | Cc1ccc(NC(=O)C(CC(C)C)NS(=O)(=O)c2ccc3c(c2)oc(=O)n3C)c(C)c1 (stereo not given) | inactive: -6.54%
59 | Cc1ccc2onc(CNC(=O)Nc3cc(F)ccc3F)c2c1 | inactive: -15.8%
60 | Cc1ccc2c(c1)Cc1c(nc(-c3ccc(Cl)cc3)nc1SCC(=O)N1CCCCC1)O2 | inactive: -3.39%
61 | Cc1ccn2c(Nc3ccc4c(c3)OCCO4)c(-c3cccs3)nc2c1 | inactive: -13.5%
62 | O=C(CSc1nnc(-c2ccc(Cl)cc2)o1)Nc1ccc(F)cc1 | inactive: -3.7%
63 | COc1cccc2c1Oc1ncccc1N(c1ccc(C(=O)NCc3ccccc3Cl)s1)C2 | inactive: 7.85%
64 | CC(=O)N1CCc2c(sc3c2c(=O)n(CCc2ccccc2)c(=O)n3CC(=O)Nc2ccc(C)c(F)c2)C1 | inactive: 2.51%
65 | CCc1ccccc1NC(=O)Cn1c(=O)n(Cc2ccc3c(c2)OCO3)c(=O)c2ccc(C(=O)NC3CCCCC3)cc21 | inactive: 0.418%
66 | Cc1ccccc1-c1nc(CS(=O)(=O)CC(=O)NCC(C)c2ccccc2)c(C)o1 (stereo not given) | inactive: -0.127%
67 | O=C(COc1ccccc1Cl)NCC1(N2CCOCC2)CCCCC1 | inactive: -1.49%
68 | COc1cc(OC)c(NC(=O)C2CCCN(c3ncnc4c3nc3n4CCCCC3)C2)cc1Cl (stereo not given) | inactive: -1.97%
69 | CCc1ccc(OCC(=O)Nc2cc3oc4ccccc4c3cc2OC)cc1 | inactive: 1.15%
70 | CCN1CCN(CCCNC(=O)c2cc3c(=O)n(C)c4ccccc4c3s2)CC1 | inactive: -12%
71 | O=C(NCCc1ccccc1)c1cnc2sc(N3CCCC3)nn2c1=O | inactive: -10.4%
72 | Cc1cccc(OCCn2c(-c3ccc(Cl)cc3)nc3ccccc3c2=O)c1 | inactive: -23.6%

Row | SMILES | activity change, negative = inhibition
73 | CCCc1nn2c(=O)cc(COC(=O)c3cccc(NC(=O)COc4ccccc4C)c3)nc2s1 | inactive: 0%
74 | COC(=O)C1=C(CS(=O)(=O)c2cc(Cl)ccc2OC)NC(=O)NC1c1ccccc1 (stereo not given) | inactive: -0.459%
75 | CCCCOc1ccc(C(=O)N2CCN(CCc3ccncc3)CC2)cc1 | inactive: 2.76%
76 | CC(=O)c1c(C)nc2nc(-c3ccccc3)nn2c1C | inactive: 3.63%
77 | COCCCNC(=O)c1oc2c(c1C)-c1nn(Cc3cccc(Cl)c3)cc1CC2 | inactive: 7.12%
78 | COc1ccccc1N1CCN(C(=O)c2nn(-c3ccc(C)cc3)c(=O)n(C)c2=O)CC1 | inactive: 4.28%
79 | CCOC(=O)c1ccc(Nc2c(-c3ccc(O)c(OC)c3)nc3nc[nH]n23)cc1 | inactive: 1.48%
80 | Cc1cc(F)ccc1S(=O)(=O)NCC(c1ccco1)S(=O)(=O)c1cccs1 (stereo not given) | inactive: 0.699%
81 | CC1Cc2cc(S(=O)(=O)N3CCN(c4ccccc4F)CC3)ccc2N1C(=O)C1CCC1 (stereo not given) | inactive: -16.4%
82 | Cc1cc2nnc(SCC(=O)Nc3ccc(F)c(Cl)c3)n2c2ccccc12 | inactive: 1.27%
83 | COc1cc(NS(=O)(=O)c2ccc3c(c2)CCN3S(C)(=O)=O)cc(OC)c1 | inactive: -1.92%
84 | CCc1nn2c(=O)cc(COC(=O)c3cccc(NC(=O)c4ccccc4Cl)c3)nc2s1 | inactive: 0%
85 | CCc1ccc2c(c1)c(=O)c(S(=O)(=O)c1ccc(F)cc1)cn2CC(=O)Nc1ccc(C)cc1C | inactive: -15.5%
86 | Cc1ccc(CNC(=O)C2CCCN(S(=O)(=O)c3cccc4nsnc34)C2)cc1 (stereo not given) | inactive: -0.372%
87 | CCCn1ccc2c(OCC(=O)NCc3ccc(C)cc3)cccc2c1=O | inactive: 0.41%
88 | Cc1cccc(NC(=O)c2ccc(N(Cc3ccccc3)S(C)(=O)=O)cc2)c1 | inactive: -8.65%
89 | CCN(CCCNC(=O)c1cc2c(=O)n(C)c3ccccc3c2s1)Cc1ccccc1 | inactive: -8.34%
90 | Cc1ccc2c(c1)C(c1ccc(F)cc1)N(C(=O)COc1ccc(Cl)cc1Cl)CC(=O)N2 (stereo not given) | inactive: -2.17%
91 | COc1ccc(CNC(=O)c2cnc3sc(N4CCCC4)nn3c2=O)cc1OC | inactive: -4%
92 | CCOC(=O)c1cccc(NC(=O)CN2C(=O)c3ccccc3Sc3ncccc32)c1 | inactive: -14%
93 | CC1CCC(NC(=O)c2ccc3c(c2)N(Cc2ccccc2)C(=O)c2ccccc2S3=O)CC1 (stereo not given) | inactive: -2.82%
94 | COc1cc(-c2nnn(CC(=O)Nc3ccc(OC(F)(F)F)cc3)n2)cc(OC)c1OC | inactive: 2.1%
95 | Cc1ccc(C(=O)NCc2ccc(N(C)C)cc2)cc1NC(=O)c1nsc2ccccc12 | inactive: 0%
